About 2,200 (0.71%) of roughly 310,000 compounds showed an effect of 50% or more. Effects have a minus sign here. Some of the results follow.
Target: human ether-à-go-go-related gene (hERG) potassium channel (human, UniProt Q12809)
Experiment: primary screen, population patch clamp on CHO cells stably expressing hERG

Sequence of human ether-à-go-go-related gene (hERG) potassium channel (Q12809 whole entry, looked up): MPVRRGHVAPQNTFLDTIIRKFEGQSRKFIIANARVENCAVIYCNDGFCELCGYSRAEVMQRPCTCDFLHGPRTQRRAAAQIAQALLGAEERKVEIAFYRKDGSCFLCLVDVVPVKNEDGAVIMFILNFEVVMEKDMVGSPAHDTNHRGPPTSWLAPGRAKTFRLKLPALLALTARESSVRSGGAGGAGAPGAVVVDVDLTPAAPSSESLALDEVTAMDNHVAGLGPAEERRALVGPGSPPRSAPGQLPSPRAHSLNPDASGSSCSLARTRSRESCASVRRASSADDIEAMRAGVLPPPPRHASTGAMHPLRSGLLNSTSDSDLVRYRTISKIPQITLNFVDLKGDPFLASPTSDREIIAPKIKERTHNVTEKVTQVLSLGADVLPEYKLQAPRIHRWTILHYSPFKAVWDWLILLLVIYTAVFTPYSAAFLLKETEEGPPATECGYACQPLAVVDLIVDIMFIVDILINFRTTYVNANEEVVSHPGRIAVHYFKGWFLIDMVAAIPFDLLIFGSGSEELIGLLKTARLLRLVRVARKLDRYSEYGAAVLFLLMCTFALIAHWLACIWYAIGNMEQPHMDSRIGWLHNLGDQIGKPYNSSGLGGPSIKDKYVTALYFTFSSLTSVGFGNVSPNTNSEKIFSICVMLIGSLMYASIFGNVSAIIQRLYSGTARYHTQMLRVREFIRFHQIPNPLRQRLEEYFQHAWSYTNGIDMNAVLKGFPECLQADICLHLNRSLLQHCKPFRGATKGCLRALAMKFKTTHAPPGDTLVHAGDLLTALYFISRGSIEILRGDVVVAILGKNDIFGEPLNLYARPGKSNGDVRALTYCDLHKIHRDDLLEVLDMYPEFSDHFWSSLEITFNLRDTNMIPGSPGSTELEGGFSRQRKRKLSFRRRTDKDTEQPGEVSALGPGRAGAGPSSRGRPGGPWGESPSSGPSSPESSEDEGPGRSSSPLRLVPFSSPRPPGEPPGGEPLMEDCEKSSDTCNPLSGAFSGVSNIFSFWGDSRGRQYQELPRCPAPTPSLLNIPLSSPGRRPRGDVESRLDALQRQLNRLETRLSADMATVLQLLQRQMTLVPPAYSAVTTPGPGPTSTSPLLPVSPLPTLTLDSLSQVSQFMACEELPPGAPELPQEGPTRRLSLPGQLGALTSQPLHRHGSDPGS

| Compound | hERG current change (%, negative = inhibition) at 1uM |
| --- | --- |
| Cc1oc(/N=C/c2cccc([N+](=O)[O-])c2)c(C#N)c1C | 11.1% |
| CCn1nc(C)c(NC(=O)/C=C/c2cnn(C)c2)c1C | -12.4% |
| C=CCn1c(CSc2nc3ccccc3s2)nnc1SCC(=O)OCC | -21.4% |
| COc1cccc(C(=O)C2CCCN(Cc3ccon3)C2)c1 (stereo not drawn) | 14.5% |
| CN(/C=C/C(=O)C(F)(F)C(F)(F)F)Cc1ccccc1 | 1.5% |
| O=C(CCCn1c(SCC(=O)NCCc2ccccc2)nc2ccccc2c1=O)NCC1CCCO1 (stereo not drawn) | -15% |
| O=C(NCc1nnc(SCC(=O)N2CCOCC2)o1)c1ccccc1F | 18.9% |
| Cc1cc(NC2CCCCC2)n2c(n1)nc1ccccc12 | -18.4% |
| CC1CN(C2CCN(C(=O)c3cccc(Cl)c3)CC2)CC(C)O1 (stereo not drawn) | 10.4% |
| CN(C)CCCNC(=S)N1CCn2c(nc3ccccc32)C1 | 9.39% |
| O=C(c1cccc([N+](=O)[O-])c1)N(c1ccccn1)c1ccccn1 | 9.69% |
| O=Cc1c(Cl)nc2ccccn12 | 14% |
| CNC(=S)N1N=C(c2cccs2)CC1c1ccc(OC)cc1 (stereo not drawn) | 9.91% |
| COc1ccc(-n2c(C)cc(=O)c3c2CC(C)(C)CC3=O)cc1 | 15.7% |
| O=C(NCCN1CCOCC1)C1CCC(=O)N1Cc1ccc(F)cc1 (stereo not drawn) | -4.74% |
| COc1cc(/C=C/C(=O)OCC(=O)N2CCCc3ccccc32)ccc1OC(F)F | 5.31% |
| Cc1c(N(C)C(=O)c2ccc3c(c2)OCO3)c(=O)n(-c2ccccc2)n1C | 13.3% |
| O=C(CSc1ccccc1C(=O)NCc1ccccc1)NC1CCCCCCC1 | -0.148% |
| C=CCN(Cc1ccc(OC)c(OC)c1)C(=O)c1cc2cc(F)ccc2[nH]1 | 7.69% |

| Compound | hERG current change (%, negative = inhibition) at 1uM |
| --- | --- |
| COc1ccc(NC(C)=O)cc1NC(=O)CSc1nnc(-c2ccccc2)n1N | 15.9% |
| Cc1ccc(C2CC(c3cccc(Br)c3)Nc3nnnn32)cc1 (stereo not drawn) | -0.515% |
| COC(=O)CN(c1ccc(F)cc1)S(=O)(=O)c1ccccc1 | 8.4% |
| CCOC(=O)c1sc(N)c(C#N)c1COC(=O)CNC(=O)c1ccccc1 | 12.2% |
| CCc1cc(CNC(=O)C2CCC(=O)N(Cc3cccc(F)c3)C2)on1 (stereo not drawn) | 2.65% |
| CN(C)CC(O)COc1cccc(OCC(O)CN(C)C)c1.Cl (stereo not drawn) | 9.44% |
| CCCCNC(=O)CSc1nc2cc3c(cc2c(=O)n1CCCC(=O)NCCc1ccc(OC)c(OC)c1)OCO3 | 7.37% |
| CN1CCN(c2ccc(-c3cccc(NC(=O)COc4ccc(Cl)cc4)c3)nn2)CC1 | 0.874% |
| O=C(Cn1ncc2ccccc21)N1CCc2ccccc21 | 7.56% |
| COc1ccccc1N1CCN(C(=O)CNS(=O)(=O)c2ccc(Br)s2)CC1 | 15.7% |
| O=C(Nc1ccc(Br)cc1)c1cccc(N2C(=O)C3C4CCC(C4)C3C2=O)c1 (stereo not drawn) | 0.527% |
| COC(=O)c1cccc(C(=O)N2CCCC(CNC(=O)c3ccccc3Cl)C2)c1 (stereo not drawn) | 10.5% |
| S=c1[nH]nc(-c2ccco2)n1/N=C/c1cccc(Cl)c1Cl | 12.5% |
| CCCCOCCCNC(=O)CN1C(=O)c2ccccc2C1=O | 12.5% |
| O=C1C2C3c4ccccc4C(c4ccccc43)C2c2nc3ccccc3n21 (stereo not drawn) | 6.14% |
| CC(C)(C)NC(=O)Cn1c(SCC(=O)Nc2nccs2)nc2ccccc21 | 10.4% |
| N#Cc1cc([N+](=O)[O-])ccc1NCCc1ccccn1 | 9.77% |
| COC(=O)c1cccc(Nc2nc(-c3ccncc3)nc3ccccc23)c1 | 14.8% |
| O=C(c1nnc(-c2ccncc2)o1)c1ccccc1Cl | 9.99% |

| Compound | hERG current change (%, negative = inhibition) at 1uM |
| --- | --- |
| CCCNC(=O)c1cc(C)no1 | 8.61% |
| CCOC(=O)NC(Nc1ccc(OC)cc1)(C(F)(F)F)C(F)(F)F | 17.3% |
| C=CCN1C(=O)C2(/C(=C(\O)c3ccc4c(c3)OCCO4)C(=O)C(=O)N2CCCOC)c2ccccc21 (stereo not drawn) | 2.72% |
| Cc1ccc(Cl)cc1N1CCN(S(=O)(=O)c2ccc3c(c2)CC(=O)N3C)CC1 | 0.913% |
| CCOC(=O)CNc1nc(Cl)nc(Nc2ccc(OC)cc2OC)n1 | 11.1% |
| COc1ccccc1-c1nnn(C/C(N)=N/O)n1 | 8.18% |
| O=C(C1CCC1)N1CCC(c2nc3c(nnn3Cc3c(F)cccc3Cl)c(=O)[nH]2)CC1 | 32.2% |
| Cn1cccc1/C=N/NC(=O)CNc1ccc2ccccc2c1 | 10.4% |
| S=C(NCc1ccccc1)Nc1ccc2ccccc2c1 | 11.3% |
| Cc1cccnc1NC(=O)c1ccc(COc2ccccc2)o1 | 16.5% |
| Fc1ccc(CSc2ccc(-c3ccco3)nn2)cc1 | 11% |
| O=C(CC12CC3CC(CC(C3)C1)C2)NCc1ccccc1 | 14.2% |
| CC(=O)N[C@@H](Cc1c[nH]c2ccccc12)C(=O)NCCc1ccc(S(N)(=O)=O)cc1 | 7.43% |
| Cc1ccc2cc(C#N)c(N3CCN(C(=O)c4ccccc4)CC3)nc2c1 | -6.89% |
| Cc1ccc(NC(=S)NCc2ccccc2)cc1[N+](=O)[O-] | 8.12% |
| CCc1ccc(NC(=O)C(=O)N/N=C(\C)CC(=O)NCc2ccc(Cl)cc2)cc1 | 11.7% |
| CN(CC(=O)Nc1cccc(F)c1)C(=O)c1ccc2c(=O)n3c(nc2c1)CCC3 | 14.3% |
| CC(C)(C)OC(=O)NCCCCCc1cn([C@@H](CO)C(=O)NCCCCCCCCCCC(=O)N2CCN(C(=O)OC(C)(C)C)CC2)nn1 | 6.55% |
| CS(=O)(=O)N1CCC(C(=O)Nc2ccc3c(c2)OCO3)CC1 | 1.5% |
